Experimental data from PubChem BioAssay AID488969 (Vanderbilt High Throughput Screening Facility, 2010).
Whole data set: some 110,000 compounds, median “z-score” near -0.1, cut for the highest 2% near 2. The list shows a part of the results. The source made the active and inactive calls.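 How the source made its calls: active means z-score in the third read window above 3 or below -3; inactive means the rest.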

molecular target: Metabotropic glutamate receptor 8 (Rattus norvegicus) (UniProt P70579); assay: rat mGluR8 modulators via GIRK flux, primary screen, cell-based, thallium flux, HTS (AID 488969); conditions: HEK293 rat mGluR8, GIRK (G protein-gated inwardly rectifying potassium channel) thallium flux, FluoZin2; at 10 µM; stronger effect = higher value; submaximal glutamate (EC20) added with thallium
Sequence of UniProt P70579 (P70579 whole entry, looked up): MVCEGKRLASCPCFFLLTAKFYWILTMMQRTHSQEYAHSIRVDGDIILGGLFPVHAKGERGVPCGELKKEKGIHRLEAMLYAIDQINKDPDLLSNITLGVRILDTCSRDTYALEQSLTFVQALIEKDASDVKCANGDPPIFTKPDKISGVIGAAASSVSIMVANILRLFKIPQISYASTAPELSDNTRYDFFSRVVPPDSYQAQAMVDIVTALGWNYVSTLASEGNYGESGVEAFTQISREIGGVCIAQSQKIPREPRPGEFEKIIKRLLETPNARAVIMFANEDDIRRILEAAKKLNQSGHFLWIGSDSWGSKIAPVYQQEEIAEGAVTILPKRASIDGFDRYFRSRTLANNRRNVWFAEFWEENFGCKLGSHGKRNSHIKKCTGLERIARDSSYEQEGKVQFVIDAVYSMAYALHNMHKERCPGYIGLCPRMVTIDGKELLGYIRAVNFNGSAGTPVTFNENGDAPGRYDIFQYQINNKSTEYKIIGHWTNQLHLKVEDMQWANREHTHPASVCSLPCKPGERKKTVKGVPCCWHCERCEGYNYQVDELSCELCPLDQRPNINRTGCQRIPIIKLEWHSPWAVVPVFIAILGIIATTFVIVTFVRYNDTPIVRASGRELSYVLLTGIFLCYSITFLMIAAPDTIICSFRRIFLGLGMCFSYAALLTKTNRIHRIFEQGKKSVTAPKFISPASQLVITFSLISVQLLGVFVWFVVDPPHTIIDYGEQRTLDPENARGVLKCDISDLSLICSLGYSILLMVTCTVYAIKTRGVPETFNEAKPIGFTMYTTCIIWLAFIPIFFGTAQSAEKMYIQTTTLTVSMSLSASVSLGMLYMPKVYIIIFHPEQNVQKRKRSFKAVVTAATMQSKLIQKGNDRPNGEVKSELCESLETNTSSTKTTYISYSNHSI

Structure (SMILES)	z-score
COCCn1cnc2c1c(=O)n(CC(=O)OCC(=O)NCCCc1ccccc1)c(=O)n2Cc1ccccc1	-0.106
O=C(Nc1ccccc1C(=O)NCCc1ccccc1)c1ccco1	0.397
O=C(NC(NNc1ccc([N+](=O)[O-])cc1)(C(F)(F)F)C(F)(F)F)c1ccccc1Cl	-0.392
CCn1cc(C(=O)Nc2nnc(C)s2)c(=O)c2cc(F)c(N3CCN(C(=O)c4ccco4)CC3)cc21	-0.178
COc1ccc(N(C(=O)C2COc3ccccc3O2)C(C(=O)NC2CCCCC2)c2ccccc2)cc1OC (stereo unspecified)	-0.111
O=C1Nc2ccc(S(=O)(=O)NCCC3=CCCCC3)c3cccc1c23	0.587
COc1cccc(C(=O)OCC(=O)Nc2cc(C)c(C)cc2[N+](=O)[O-])c1	-0.131
CC(C)(C)NC(=O)Cn1cc(C#N)c2cc(Br)ccc21	-0.0573
O=C(NCCC1=CCCCC1)N[C@@H](Cc1ccccc1)C(=O)O	0.284
Cn1c(=O)c(Cc2ccccc2)c(O)c2ccccc21	-0.00789
Cc1nc(NC(=O)C23CC4CC(CC(C4)C2)C3)sc1Cc1ccc2c(c1)OCO2	-0.134
CCOn1c(=O)c(C)[n+]([O-])c2ccccc21	-0.273
CC(CCc1ccccc1)NC(=O)c1ccccc1 (stereo unspecified)	0.226
CCN(CC)CC(=O)c1c[nH]c2ccccc12	0.247
COc1ccc(Oc2c(C=O)c3ccccc3n2C)cc1	-1.1
COc1ccc(NS(=O)(=O)CC23CCC(CC2=O)C3(C)C)cc1 (stereo unspecified)	0.124
CCc1ccc2nc(-c3cccc(C)c3)nc(SCC(=O)NCC3CCCO3)c2c1 (stereo unspecified)	-0.227
CC12CCC(C(=O)N3CCCCC3)(CC1=O)C2(C)C (stereo unspecified)	-0.115
CC(=O)Nc1nc2nc(-c3ccccc3)cc(-c3ccccc3)n2n1	0.0168
COc1ccccc1N1CSC2=C(C#N)C(c3ccc(SC)cc3)CC(=O)N2C1 (stereo unspecified)	0.814
CCCCn1c(=S)[nH]c2cc(S(=O)(=O)N3CCCCC3)ccc21	0.106
COc1ccccc1N(C)S(=O)(=O)c1ccc(C(=O)N(CC(N)=O)C(C)C)cc1	active: -3.55
Cn1nnnc1SCc1nnc(-c2ccccc2Br)o1	0.436

Structure (SMILES)	z-score
C/C(O)=C(\C#N)c1nnc2n1CCCCC2	-0.373
Cc1c(F)cccc1NC(=O)CSCC(=O)Nc1ccccc1	0.0382
CCOC(=O)c1[nH]c(C)c(C(=O)NC(C)(C)C)c1C	-0.132
Cc1csc(NC(=O)CSc2nnc(C)n2Cc2ccco2)n1	-0.295
CC1(C)Cc2c(c(N3CCOCC3)nc3sc(C#N)c(N)c23)CS1	-0.0306
O=C(CCc1ccccc1)Nc1ccc(F)cc1F	0.0883
Cc1ccc(-c2nnn(CC(=O)N(Cc3cccs3)C(C(=O)NC(C)(C)C)c3ccc(C)o3)n2)o1 (stereo unspecified)	0.441
COc1ccc(NC(=O)c2ccco2)cc1NC(=O)c1cccnc1	0.148
CC1=C(C(=O)OC2CCCCCCC2)C(c2ccc(O)cc2)NC(=O)N1 (stereo unspecified)	0.145
CCCCNC(=O)c1ccc2c(c1)ncn2C1CCCCC1	0.585
COc1ccc(C2SCCN2S(=O)(=O)c2ccc(NC(C)=O)cc2)cc1 (stereo unspecified)	0.468
Cc1ccc(S(=O)(=O)NNC(=O)C(O)(c2ccccc2)c2ccccc2)cc1	-0.213
CCOc1cc(S(=O)(=O)n2cc(-c3ccc(F)cc3)c(N)n2)cc(OCC)c1OCC	-0.847
COc1ccc(-n2c(SCC(=O)NCC3CCCO3)nc3ccccc32)cc1 (stereo unspecified)	0.294
Cc1cc(NC(=O)c2cnn3cccnc23)no1	0.00114
CC1CCN(C(=O)N2c3ccccc3Sc3ccccc32)CC1	-0.145
CCCOc1ccccc1Cn1c(=O)oc2ccc(C)cc21	-0.77
Cc1ccsc1/C=C1/SC(=O)N(CC(=O)N2CCOCC2)C1=O	-0.261
COc1ccc(C2C(C(C)=O)=C(O)C(=O)N2c2cccnc2)cc1OC (stereo unspecified)	-0.114
CC1(C)C(=O)C2(CCCCC2)C(=O)OC1c1cccc([N+](=O)[O-])c1 (stereo unspecified)	-0.0475
CC(C)(C)NC(=O)NC(=O)COC(=O)CCC1CCCCC1	-0.148
O=C(Nc1nccs1)c1ccccc1N=Cc1ccccc1	-0.374
CCOC(=O)c1cc(-c2ccccc2)nn1-c1ccccn1	-0.628

Structure (SMILES)	z-score
COc1cccc(C(=O)NC2CCN(CC(=O)NCc3ccccc3OC)CC2)c1	-0.149
CCCCNCc1cc(Br)c(OCc2cccs2)c(OC)c1	0.46
Cc1onc(-c2ccccc2Cl)c1C(=O)NCc1nc(-c2ccccc2)no1	0.369
Cc1ccc(S(=O)(=O)N(C)CC(=O)NCc2ccncc2)cc1	-0.281
Cc1cc(C(F)F)n2nc(C(=O)Nc3cccc(C(F)(F)F)c3)nc2n1	1.01
Cc1cc(=O)n(CC(C)O)c(O)c1C#N (stereo unspecified)	0.114
COC(=O)NCc1ccc(CNC(=O)OC)cc1	0.229
Cc1cccc(OCCn2c(S(=O)(=O)O)nc3ccccc32)c1	0.0442
FC(F)(F)c1cccc(N2CCN(C(=S)NC3CCCC3)CC2)c1	0.19
OC(COc1ccc2c(c1)CCC2)CN1CCN(c2ccccc2F)CC1 (stereo unspecified)	-0.226
CSc1nnc(C)c(/C=C/Nc2ccc(Cl)cc2)n1	-0.383
CC(C)n1nnnc1-c1cc(Cl)cc(Cl)c1	-0.494
CCCc1cc(=O)[nH]c(SCC(=O)NC)n1	-0.135
Cc1cc(S(=O)(=O)Nc2c(C)ccc3nsnc23)ccc1F	-0.125
COc1cc(NC(=O)CCCSc2nc(-c3ccco3)cc(C(F)(F)F)n2)cc(OC)c1OC	-0.781
Cc1ccc(-n2nnnc2SCC(=O)Nc2sccc2C#N)cc1	-0.169
O=C(NC1CCCCC1)N1CCCC(c2nc3ccccc3[nH]2)C1 (stereo unspecified)	-0.00279
Cn1nnc(NC(=O)c2ccccc2)n1	0.0693
Cc1oc(-c2ccccc2)nc1CS(=O)CC(=O)O (stereo unspecified)	2.52
COCCCNC(=O)CC(NS(=O)(=O)c1ccc(Cl)cc1)c1ccco1 (stereo unspecified)	0.722
CCN=C1SC(CC(=O)Nc2ccc(C)cc2)C(=O)N1CC (stereo unspecified)	0.139
O=C(NNc1ccccc1[N+](=O)[O-])Nc1ccc(Cl)c(Cl)c1	0.929
CC(C)N(Cc1nc(-c2ccccc2)no1)C(=O)C1CCCCC1	-0.405

Structure (SMILES)	z-score
O=C(c1cc2c(s1)CCC2)N1CCN(c2ccccc2)CC1	-0.0558
CCOc1ccccc1N(CC(=O)NC1CCCC1)C(=O)CCC(=O)Nc1cc(C)on1	0.654
Cc1ccccc1OCC(=O)NC(=S)Nc1ccc(S(=O)(=O)NC2CCCCC2)cc1	0.718
Cc1csc(NC(=O)CN(C)S(=O)(=O)c2cccc3cccnc23)n1	-0.428
O=C(CNC(=O)c1ccccc1)NCC(=O)OCC(=O)c1ccc([N+](=O)[O-])cc1	0.155
CN(C)C(=O)/C(=C/c1cn(-c2ccccc2)nc1-c1cccc([N+](=O)[O-])c1)NC(=O)c1ccccc1	-1.44
Cc1cc(NC(=O)c2ccc3c(c2)C(=O)N(C2CCCCC2)C3=O)no1	0.19
CN1c2ccccc2-c2nc3ccccc3n2C1c1ccco1 (stereo unspecified)	-1.33
CCOc1ccccc1NC(=O)C(OC(=O)c1cc(C)oc1C)c1ccccc1 (stereo unspecified)	-1.37
CN1C(=O)N(C)C2(c3ccccc3)N(C)C(=O)NC12c1ccccc1 (stereo unspecified)	-0.266
Cc1ccc(C)n1-c1nccc(-c2cccs2)n1	-0.268
O=C(/C=C/c1ccc2ccccc2c1)c1ccoc1	-0.115
O=C1CC(N2CCC(c3nc4ccccc4o3)CC2)C(=O)N1c1cc(Cl)cc(Cl)c1 (stereo unspecified)	-0.192
CC(=O)c1ccc(N2CCN(C(=O)c3ccco3)C(C)C2)c(F)c1 (stereo unspecified)	-0.0646
CC(C)CC(=O)Nc1ccc2c3c(cccc13)CC2	-0.379
CCn1c(SCC(=O)c2cccs2)nnc1-c1cccs1	-0.141
O=C1CCCN1c1ccc(S(=O)(=O)NCCOc2ccccc2)cc1	-0.0832
CC(=O)c1n[nH]nc1NC(=O)c1ccccc1	-1.16
O=[N+]([O-])c1cccc(-c2nc(-c3cccs3)c(-c3cccs3)[nH]2)c1	-0.4
C=CCc1ccccc1OCC(O)CN1CCN(c2ccc(OC)cc2)CC1 (stereo unspecified)	-0.287
O=C(c1coc2ccc(O)cc12)C1CC1	-0.173
COc1cc(/C=C2/C(=N)N3C=CSC3=NC2=O)ccc1OCCCOc1cc(C)ccc1C	0.124
O=C(CSc1nnnn1-c1ccc(F)cc1)Nc1ccc(N2CCOCC2)c(Cl)c1	0.153

Structure (SMILES)	z-score
COc1ccccc1NC(=O)Oc1ccc(NC(=O)c2ccco2)cc1	0.271
O=C1CC(c2ccc(Cl)cc2)SC(N(c2ccccc2)c2ccccc2)=N1 (stereo unspecified)	0.267
CC12CCC(C(=O)NCc3ccc4c(c3)OCO4)(CC1=O)C2(C)C (stereo unspecified)	0.354
CS(=O)(=O)N(CCc1ccccc1)CC(=O)NCc1ccco1	0.307
COC(=O)C1CSC(C(=O)OC)N1C(=O)Nc1ccc(Cl)c(Cl)c1 (stereo unspecified)	-0.332
O=C(Nc1nccs1)c1cc(N2CCOCC2)nc2ccccc12	0.394
O=C(Cc1ccccc1)Nc1nc(-c2cccc([N+](=O)[O-])c2)cs1	-0.155
COc1ccc2[nH]cc(CCN3C(=O)CCC3=O)c2c1	-0.139
O=C(NC12CC3CC(CC(C3)C1)C2)c1ccc(-c2ccccc2Cl)o1	-0.0589
Cc1ccc(C(C(=O)NC2CCCC2)N(Cc2ccco2)C(=O)CCC(=O)Nc2cc(C)on2)cc1 (stereo unspecified)	-0.35
Cc1cc(C)c2cc3c(N)c(C(=O)Nc4c(C)[nH]c(=O)[nH]c4=O)sc3nc2c1	0.535
COCCN(CCOC)C(=O)C12CCC(C)(C(=O)C1)C2(C)C (stereo unspecified)	-0.0902
COc1cccc(N2CCN(c3ncccn3)CC2)c1	-0.0204
O=C(NCc1cccnc1)NC1(c2ccccc2)CC1	-0.204
Nc1ccc(C(=O)N/N=C/c2ccccc2)cc1	-0.0465
CCCC1S/C(=N/N=C/c2ccc(OC)cc2)N(Cc2ccccc2)C1=O (stereo unspecified)	-0.0593
CCOC(=O)c1ccc(N=C2C(=S)N(c3ccc(C(=O)OCC)cc3)C(=N)N2/N=C/c2ccccc2)cc1	-0.129
O=C(Cc1ccccc1)Nc1c(C(=O)N2CCCCCC2)cnn1-c1ccccc1	-0.477
COc1ccc(OC(C)C(=O)N2CCOCC2)cc1 (stereo unspecified)	-0.0426
